# Measured values published in PMC4336329 (PLoS ONE, 2015).
# In all, about 310,000 compounds went through this assay and about 2,200 (0.71%) showed an effect of 50% or more. Effects have a minus sign here. Some of the results follow.
# Molecular target: human ether-à-go-go-related gene (hERG) potassium channel (human, UniProt Q12809)
# Experiment: primary screen, population patch clamp on CHO cells stably expressing hERG
# Chain of human ether-à-go-go-related gene (hERG) potassium channel (Q12809 whole entry, looked up): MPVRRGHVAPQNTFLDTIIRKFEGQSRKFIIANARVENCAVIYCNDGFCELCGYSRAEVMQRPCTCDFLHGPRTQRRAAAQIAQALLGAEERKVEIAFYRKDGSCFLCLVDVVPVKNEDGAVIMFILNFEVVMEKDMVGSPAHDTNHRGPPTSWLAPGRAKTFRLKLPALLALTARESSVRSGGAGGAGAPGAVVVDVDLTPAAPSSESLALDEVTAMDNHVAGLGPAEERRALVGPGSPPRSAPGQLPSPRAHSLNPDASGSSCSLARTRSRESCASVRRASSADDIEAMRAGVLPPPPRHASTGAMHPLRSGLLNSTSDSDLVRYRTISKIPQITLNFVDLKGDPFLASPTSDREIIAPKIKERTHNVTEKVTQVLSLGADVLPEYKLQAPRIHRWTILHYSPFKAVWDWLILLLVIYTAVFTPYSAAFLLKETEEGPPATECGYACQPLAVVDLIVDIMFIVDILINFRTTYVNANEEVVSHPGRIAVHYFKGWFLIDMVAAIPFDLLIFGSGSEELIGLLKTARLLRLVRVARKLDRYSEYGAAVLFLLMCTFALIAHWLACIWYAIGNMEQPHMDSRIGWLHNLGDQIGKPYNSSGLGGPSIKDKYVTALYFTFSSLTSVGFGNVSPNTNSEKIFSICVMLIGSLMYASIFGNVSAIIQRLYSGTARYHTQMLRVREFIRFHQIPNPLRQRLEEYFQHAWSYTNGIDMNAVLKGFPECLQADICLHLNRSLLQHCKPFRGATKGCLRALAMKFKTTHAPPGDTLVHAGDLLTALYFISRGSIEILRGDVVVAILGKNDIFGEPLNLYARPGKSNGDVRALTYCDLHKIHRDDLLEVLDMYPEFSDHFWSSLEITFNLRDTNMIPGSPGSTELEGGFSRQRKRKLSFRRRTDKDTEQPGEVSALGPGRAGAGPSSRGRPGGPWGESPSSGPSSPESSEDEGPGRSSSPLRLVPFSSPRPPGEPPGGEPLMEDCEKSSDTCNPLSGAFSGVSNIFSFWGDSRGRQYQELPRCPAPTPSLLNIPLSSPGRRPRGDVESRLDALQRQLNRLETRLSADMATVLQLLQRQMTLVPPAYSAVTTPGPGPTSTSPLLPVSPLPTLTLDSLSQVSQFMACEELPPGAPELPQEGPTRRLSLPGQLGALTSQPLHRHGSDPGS
row,SMILES,"hERG current change (%, negative = inhibition) at 1uM [%]"
1,Cc1onc(NC(=O)NC(=O)c2c(F)cccc2Cl)c1Br,10.4
2,CCC(=O)NCCNc1nc2cc(C)c(C)cc2cc1C#N,8.58
3,CCOc1ccccc1C(=O)Nc1ccccc1C(N)=O,0.927
4,CC(=O)N(c1cccc(Br)c1)C1C=CS(=O)(=O)C1 (centres unmarked),10.1
5,COC(=O)c1cccc(-n2c(C)cc(C=O)c2C)c1,5.95
6,COc1cccc(C(=O)NCC(=O)NNc2ncnc(N)c2[N+](=O)[O-])c1,12.8
7,CCOC(=O)c1sc2ncn(CC(=O)Nc3cc(C)on3)c(=O)c2c1C,13
8,CN(C)CCCN(Cc1ccc2c(c1)OCO2)C(=O)NC1CCCCC1,-1.49
9,CCOC(=O)C(C)Oc1ccsc1C(=O)OC (centres unmarked),8.71
10,COC(=O)c1ccc(/C=N/NC(=O)CC(=O)NCC(C)C)cc1,18.3
11,CN1/C(=C\C(=O)c2cccnc2)C(C)(C)c2ccccc21,-1.35
12,CNC(C(=O)c1ccccc1)C(OC)c1cccc([N+](=O)[O-])c1.[O-][Cl+3]([O-])([O-])O (centres unmarked),11
13,Cc1cc(Nc2c(C)n(C)n(-c3ccccc3)c2=O)c2ccccc2n1,1.83
14,Cc1ccc(C)c(S(=O)(=O)Nc2cc3c4c(c2)CCC(=O)N4CCC3)c1,11.5
15,CCOC(=O)C1CCN(C/C=C/c2ccccc2)CC1,4.64
16,COc1cc2c(cc1NC(=O)C(C)N1CCN(S(=O)(=O)c3ccc(C)c(C)c3)CC1)oc1ccccc12 (centres unmarked),20.5
17,Cc1ccc(C2C(C#N)=C(N)Oc3cc4c(cc32)OCO4)cc1 (centres unmarked),11.4
18,COC(=O)C1=C(c2ccc(-c3ccccc3)c(F)c2)C[C@@H]2CC[C@H]1N2C(=O)NCc1ccc(F)cc1,15.5
19,O=C1/C(=C/c2ccccn2)SC(=S)N1NS(=O)(=O)c1ccccc1,4.71
20,COc1ccccc1NC(=O)C1=C(C)Nc2nc(-c3ccc(N(C)C)cc3)nn2C1c1ccncc1 (centres unmarked),-4.17
21,CCCC(=O)NC(=S)Nc1ccccc1OC,7.87
22,CCCCOc1ccc(Cl)cc1Nc1nc(NCCO)nc(N2CCCC2)n1,9.02
23,CCn1cc(C(=O)N2CCN(c3ccccc3)CC2)c(=O)c2cc(S(=O)(=O)N3CCOCC3)ccc21,21.2

row,SMILES,"hERG current change (%, negative = inhibition) at 1uM [%]"
1,CC(c1ccccc1)C1CC(=O)N(c2ccc(C(=O)O)cc2)C1=O (centres unmarked),15.7
2,CCN(C(=O)c1ccc2c(SCC(=O)O)c3c(nc2c1)CCC3)c1cc(Cl)ccc1OC,7.27
3,CCc1ccccc1NCc1cc(=O)oc2cc(C)ccc12,17.5
4,Cc1nc(SCC(=O)NNC(=O)c2cccs2)[nH]c(=O)c1C,8.36
5,COC(=O)CCNS(=O)(=O)c1ccc2nsnc2c1,2.08
6,CC(C)c1ccccc1NC(=O)COC(=O)COc1ccccc1[N+](=O)[O-],13.6
7,CC(C)CC(c1nnnn1C1CCCC1)N1CCN(C(=O)c2ccco2)CC1.Cl (centres unmarked),-6.57
8,CNc1ccc(Cl)cc1C(N)=O,26.5
9,CC(=O)c1ccc(NC(=O)c2cc(C)nc3ccccc23)cc1,13.5
10,COc1ccc(NC(=O)c2ccccc2NC(=O)CSc2ccc(Cl)cc2)cc1,-1.47
11,O=C(COC(=O)c1cccc(Br)c1)NCCC1=CCCCC1,12.7
12,Cc1nc(SCc2ccc(F)cc2)c2oc3ccccc3c2n1,11.8
13,COC(=O)c1nnn(-c2ccsc2C(=O)OC)c1C(=O)OC,0.538
14,COc1ccc(C(=O)CC(=O)C(=O)Nc2cc(OC)ccc2OC)cc1,4.24
15,Cc1ccc(/C=C/c2nc3sc(C(=O)O)c(C)c3c(=O)[nH]2)cc1[N+](=O)[O-],19.5
16,COc1cc2nc(SCc3ccc(F)cc3)n(Cc3cccs3)c(=N)c2cc1OC,0.591
17,O=C(Nc1ccc(Cc2ccncc2)cc1)c1cccc([N+](=O)[O-])c1,6.84
18,O=C(NCCc1ccc2c(c1)OCCO2)c1ccccn1,11.4
19,CC(=O)Nc1ccc(NC(=O)C(OC(=O)c2ccccc2)C(OC(=O)c2ccccc2)C(=O)O)cc1 (centres unmarked),13.7
20,CC(=O)c1cccc(NC(=O)C(C)OC(=O)c2cccc(S(=O)(=O)N3CCN(C)CC3)c2)c1 (centres unmarked),-5.66
21,O=C(NNc1cc(Cl)ccc1Cl)c1cccnc1Cl,17.5
22,CCOC(=O)CCCN1CC(O)=C(c2nc3ccccc3s2)C1=N,12.2
23,COc1ccccc1-c1sc2ccccc2c1-c1ccc2c(c1)OCO2,13.9

row,SMILES,"hERG current change (%, negative = inhibition) at 1uM [%]"
1,Cc1cccc(C)c1NC(=S)NCCc1ccccn1,14
2,COc1cc(OC)nc(NC(=O)CN2CCN(c3ccc(F)cc3)CC2)n1,-8.52
3,COc1ccccc1NC(=O)C1=C(C)Nc2nc(-c3cccs3)nn2C1c1cccnc1 (centres unmarked),3.14
4,S=C(NCc1ccccc1)Nc1ccncc1,5.25
5,CCN(c1ccc(OC)cc1)S(=O)(=O)c1ccc2c(c1)CCN2C(=O)CCC(=O)O,10.6
6,Cc1cc(C)cc(NC(=O)C(NCC2CCCO2)c2ccccc2)c1.O=C(O)C(=O)O (centres unmarked),12.3
7,COc1ccc2[nH]c(=O)c(CNc3ccccc3C)cc2c1,9.37
8,COc1ccc2c(c1)c(C(=O)N/N=C/c1ccc(OC)c(OC)c1)c(C)n2C,-2.8
9,Cc1nnc(NC(=O)CSc2ncn(-c3ccccc3)n2)s1,9.65
10,Cl.Cn1sccc1=O,16
11,CCCCCc1nnc(NC(=O)OCCC)s1,-10.6
12,CCOC(=O)c1cnc(SCC(=O)Nc2sc(C)c(C)c2C#N)nc1N,17.2
13,Nc1cc([N+](=O)[O-])ccc1Nc1ccccc1,2.49
14,O=C(COc1ccccc1)Nn1cnc2ccccc21,3.85
15,COc1ccccc1N1CCN(S(=O)(=O)c2cc3c(cc2C)NC(=O)CO3)CC1,2.65
16,CC(=O)Nc1ccc(S(=O)(=O)N2CCSC2c2ccccc2)cc1 (centres unmarked),18.2
17,COCC(C)NCc1ccc(OC)c(Br)c1.O=C(O)C(=O)O (centres unmarked),11
18,CCOC(=O)c1[nH]c(C)c(CN(CCc2ccccc2)S(C)(=O)=O)c1C,4.5
19,Cc1noc(C)c1CSCC(=O)N(C)CC(=O)Nc1ccc(Cl)cc1,6.74
20,Cc1nn(S(=O)(=O)c2cccs2)c(C)c1Sc1ccc([N+](=O)[O-])cc1,12.1
21,Cc1sc2c3ccsc3ccc2[n+]1C.[I-],18
22,CCc1ccccc1NC(=O)C1c2ccccc2Oc2ccccc21,11.8
23,COC(=O)c1cc(OC)c(OC)cc1NC(=O)Cc1ccccc1[N+](=O)[O-],2.29

row,SMILES,"hERG current change (%, negative = inhibition) at 1uM [%]"
1,Cc1cccc(NC(=O)CSc2ncnc3nc[nH]c23)c1C,-1.67
2,CC(=O)NCCn1c(SCc2ccc(C)cc2)nc2ccccc2c1=O,-3.02
3,CC1CCCN(C(=O)COC(=O)CNC(=O)c2ccc(Br)cc2)C1 (centres unmarked),5.36
4,COc1ccc(-c2ccc(S(=O)(=O)N3CCCC3)cc2)cc1,12.2
5,NS(=O)(=O)c1ccc(NC(=S)NNC(=O)c2ccc(Br)o2)cc1,14.1
6,CC1=C(C(=O)Nc2ccccn2)C(c2ccc(Br)cc2)NC(=S)N1 (centres unmarked),8.66
7,COc1cccc(NC(=O)CSc2nnc(Cn3c(=O)sc4ccccc43)n2C)c1,6.44
8,Cc1ccc(N=Cc2c(O)n(-c3ccc(C)cc3)c(=O)[nH]c2=O)cc1,12.2
9,COC(=O)Nc1ccc(OCC(=O)N2CCOCC2)cc1,-3.91
10,CC(=O)O/N=C(/c1nonc1N)N(C)C,8.58
11,CC(CCc1ccccc1)NCC(O)c1ccc(O)c(C(N)=O)c1.Cl (centres unmarked),-6.91
12,Nc1ccc(C(=O)OCC(=O)N2CCc3ccccc3C2)cc1[N+](=O)[O-],13.9
13,CN1CCN(c2ccccc2NC(=O)COc2ccc(Br)cc2)CC1,-20.3
14,CCCCN(C(=O)c1ccc(N(C)S(=O)(=O)c2ccc(C)cc2)cc1)c1c(N)n(CCC)c(=O)[nH]c1=O,17.9
15,O=C1CC(c2cccc(Br)c2)C2=C(CCCC2=O)N1 (centres unmarked),12.7
16,CN1C2CCC1CC(NS(=O)(=O)c1ccc(C#N)cc1)C2 (centres unmarked),4.41
17,O=C(CN1CCN(C(=S)NC2CCCC2)CC1)Nc1ccc(Oc2ccccc2)cc1,-3.39
18,CCn1c(SCC(=O)Nc2oc(-c3ccccc3)c(-c3ccccc3)c2C#N)nnc1-c1ccco1,13.2
19,CCOC(=O)C1=C(C)NC(=O)NC1/C(C)=C/c1ccccc1 (centres unmarked),-7.48
20,COc1ccc(-c2ccc(/C=C3/C(=N)N4C=CSC4=NC3=O)o2)c([N+](=O)[O-])c1,6.71
